Data from publication PMC12136788.
The list shows a part of the results.

T1: UNK ZnF1-6 (called full-length) (human, UniProt Q9C0B0 30-357)
T1 sequence: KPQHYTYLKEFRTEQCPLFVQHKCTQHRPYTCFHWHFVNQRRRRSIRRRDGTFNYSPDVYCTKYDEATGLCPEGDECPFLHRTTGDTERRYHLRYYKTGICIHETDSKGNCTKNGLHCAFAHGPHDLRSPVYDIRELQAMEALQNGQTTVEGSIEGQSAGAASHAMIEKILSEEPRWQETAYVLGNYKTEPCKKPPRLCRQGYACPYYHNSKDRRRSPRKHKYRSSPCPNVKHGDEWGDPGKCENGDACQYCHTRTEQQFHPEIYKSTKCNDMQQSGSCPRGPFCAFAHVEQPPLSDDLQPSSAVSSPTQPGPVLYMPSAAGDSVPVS

B1: chr9:88475159:88475277:+|CDS|ENSG00000106723|unk|total|mutant (ssRNA)
RNA: GGGAGUUCUACAGUCCGACGAUCACAAGUGGAAUAUGCCAAAGAAGAUGGCUCGAAAAGGACUGGCAUGGUCAUUCAUCAAGCCGAAGCCAAGCCCUCCGUCUAUUUCAUCAAGUUUGAUGAUGAUUUCCAUAUUUAUGUCUACAACAGAGGAUUGAGCAUCA
B2: chr7:152649051:152649153:-|CDS|ENSG00000196584|unk|FALSE|unique (ssRNA)
RNA: GGGAGUUCUACAGUCCGACGAUCAGCUCUGAAGAAAUAAUCAAAUACUGCCUGGGAAGAUUUUUUUUGGUGUACUGCAGUAGUAGCACCCACUUACUUCUUACACUUUACUCACUAGAAAGUAUGUUUUGUAGUCACCCAUCUCAACAGAGGAUUGAGCAUCA
B3: chr6:52791370:52791857:-|three_prime_utr|ENSG00000243955|control|control|control (ssRNA)
RNA: GGGAGUUCUACAGUCCGACGAUCGCUAAUGAACUCUUUCAAAUUAUAUGCUAAUUAAAUAAUACAACUCCUAUUCGCUGACUUAGUUAAAAUUGAUUUGUUUUCAUUAGGAUCUGAUGUGAAUUCAGAUUUCCAAUCUUCUCCCAACAGAGGAUUGAGCAUCA
B4: chr4:138171112:138171219:-|3pUTR|ENSG00000151012|msi1|FALSE|unique (ssRNA)
RNA: GGGAGUUCUACAGUCCGACGAUCUUUUUUUUUUUCACAUCAGUUUGAUCAGGAAAGUGUAUAACACAUCUUAGAGCAAGAGUUAGUUUGGUAUUAAAUCCUCAUUAGAACAACCACCUGUUUCACUAAUAACUUACCCCUGAUCAACAGAGGAUUGAGCAUCA
B5: ENSG00000124766:be:win_3851|3pUTR|ENSG00000124766|bound_else_gene|NA|bound_elsewhere_windowed (ssRNA)
RNA: GGGAGUUCUACAGUCCGACGAUCUCCGUUAAGGGUUUUUGUUUUUAAACUUUUUUUUGCCAUCCAUCCUGUGCAAUAUGCCGUGUAGAAUAUUUGUCUUAAAAUUCAAGGCCACAAAAACAAUGUUUGGGGGAAAAAAAAGAACAACAGAGGAUUGAGCAUCA
B6: chr19:41432845:41433434:-|three_prime_utr|ENSG00000105341|control|control|control (ssRNA)
RNA: GGGAGUUCUACAGUCCGACGAUCGCCCAGGCACCUCUCCCACCUAACCCAGAUGCAGGAGAGGAAGUGGGGAGGGGCAAUGUUAGGCAGUUCUCAUAUCCCCCUGCAUCCAUCACAAACCUAGAGUAUUUAUGGUAGAUGAGCCAACAGAGGAUUGAGCAUCA
B7: chr1:117959336:117959438:+|CDS|ENSG00000065183|unk|total|mutant (ssRNA)
RNA: GGGAGUUCUACAGUCCGACGAUCGAUUAUCUCAAGAGGGAAUGCGAGGCAAAAAGUGAAGUUAUGUUUUUUGCUGAUGCUACCCGCCACUUGGAAGAGAAGAAGAGGAAGAGGAAAAAGAGGGAGAAGUUGAUUCUAACGUUGCAACAGAGGAUUGAGCAUCA
B8: chr8:42175503:42175666:-|3pUTR|ENSG00000104368|msi1|FALSE|unique (ssRNA)
RNA: GGGAGUUCUACAGUCCGACGAUCAUGAAAGCAUGUCUCAAUAGUAAAAGAUAACAAGAUCUUUCAGGAAAGACGGAUUGCAUUAGAAAUAGACAGUAUAUUUAUAGUCACAAGAGCCCAGCAGGGCCUCAAAGUUGGGGCAGGCAACAGAGGAUUGAGCAUCA
B9: chr10:95606323:95606429:-|3pUTR|ENSG00000059573|unk|FALSE|bound_elsewhere (ssRNA)
RNA: GGGAGUUCUACAGUCCGACGAUCCCAUGGCUGCUUUGUGUCACCUCAGUGACUUACAGUCCCCCUUGGCAUUUAGUUGGUACUAGAGCCAGUCAUCCUUAACAAAUCUUUUCACAUUUUAUUUCUUUCACAUGUAGUCAUCUUCAACAGAGGAUUGAGCAUCA
B10: chr1:156742365:156742464:-|3pUTR|ENSG00000143321|msi1_unk|total|mutant (ssRNA)
RNA: GGGAGUUCUACAGUCCGACGAUCAUUUCUGAGGUGCACUGGGAGGCUCCCCUUCUAUUUGGGGCUUGAUGACUUUCUUUUUGCCGCUGGGGCUUUGAUGUUCCUUCCAGUGUCAUUUCUCAUCCACAUACCCUGACCUGGCCCCAACAGAGGAUUGAGCAUCA
B11: chr9:132262671:132262773:-|3pUTR|ENSG00000107290|unk|total|mutant (ssRNA)
RNA: GGGAGUUCUACAGUCCGACGAUCUGUGCAUUAUUUGACAUUUCCUUUGUCAUCUGCUUUUUAAGCAAAAAAGGGUUUUGUGUCCGAAAUUCUACUUGAGCAGAUUAUAAAGAGCUUUAAAAAACAACUUUCGGUUGCCAAAAGCAACAGAGGAUUGAGCAUCA
B12: chr7:33006061:33006162:+|3pUTR|ENSG00000122642|msi1_unk|FALSE|overlapping (ssRNA)
RNA: GGGAGUUCUACAGUCCGACGAUCGGCAUCUCAGACCACAAAUAGAGAAUUUGAUUCCUCAUUUGCCACAUAAGUCAUCUGCUUAGCUUUUCCUUUCCUUUUUUUUUUUUUUUUUUUUUCUGGAGGCAGAGUCUCCCUUUGUCGCAACAGAGGAUUGAGCAUCA
B13: chr22:20142972:20143073:+|CDS|ENSG00000099904|msi1|FALSE|unique (ssRNA)
RNA: GGGAGUUCUACAGUCCGACGAUCGGGGAUCAUGUGGCCCUGCAGCCCCUGCGCUCUGAGGGGGGGCCCCCCACGCCCCACCGUAGCAUUUUUGCCCCCCAUGCACUGCCCAACCGCAACGGCAGCCUGUCCUAUGACAGCCUGCAACAGAGGAUUGAGCAUCA
B14: chr19:13098382:13098626:+|3pUTR|ENSG00000008441|msi1|FALSE|unique (ssRNA)
RNA: GGGAGUUCUACAGUCCGACGAUCACGCAGUAUAUACGAGUAUCUCUAUAUAUAGUACUAAUGGAUUUGGUGUGCUUCCCCCUUAGCGUCCCCCUCCCUCUGCUCCUCCUCCUUCAGCCUGGUCUCCCCCUCUUCUCUGCCCUCCAACAGAGGAUUGAGCAUCA

Biological target: T1, UNK ZnF1-6 (called full-length)
Experiment: nsRBNS (natural sequence RNA bind-n-seq); RBNS binding buffer (assumed for nsRBNS): 25 mM Tris pH 7.5, 150 mM KCl, 3 mM MgCl2, 0.01% Triton X-100, 500 ug/ml BSA, 20 U/ml SUPERase-In, 4 C; UNK is unkempt and MSI1 is Musashi-1; names of the RNAs are library labels; protein concentration not given here; high values mean tight binding

Binder | binding signal [enrichment R]
B1 | 0.443
B2 | 0.631
B3 | 6.55
B4 | 2.58
B5 | 0.635
B6 | 2.76
B7 | 0.706
B8 | 9.38
B9 | 15.5
B10 | 0.721
B11 | 0.386
B12 | 7.4
B13 | 0.918
B14 | 1.99
